Measurements taken from PubChem BioAssay AID1347165 (National Center for Advancing Translational Sciences (NCATS), 2019).
In all, about 220,000 compounds went through this assay and about 5,700 (2.6%) were called active. The inconclusive results got no clear call from the source; some entries with a clear call stand among them for comparison. Calls come from the whole dose curve; as a rule, active = well fitted inhibition curve with a large enough effect; inconclusive = small, poorly fitted or top-dose-only effect; inactive = no such curve, though single readings can be large or run the other way. Potencies beside an inconclusive call are fits to weak or partial responses and may not hold up.

target: Lysine-specific demethylase 5B (Homo sapiens) (UniProt Q9UGL1); experiment: Primary screen for KDM5B Histone Demethylases FDH-coupled qHTS; conditions: FDH-coupled NADH fluorescence (FDH is formaldehyde dehydrogenase); activity change, negative = inhibition: at 57.7 µM (top of the series) unless noted; note: nearly all actives have a fitted effect of over 70% in size; for activity change, negative = inhibition: 0% is about no effect
Method in brief: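 Inhibition is measured as reduced NADH fluorescence generation from FDH coupling to formaldehyde release. Truncated KDM5BΔAP at 200 nM final acts on H3K4me3 peptide (12.5 µM in substrate mix) in pH 7.5 HEPES buffer with Tween-20, 30 min, room temperature.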
Potency is the fitted concentration of half-maximal effect; tags give direction and shape of the fitted curve.

Chain of UniProt Q9UGL1 (Q9UGL1 whole entry, looked up, the tested form may be a part): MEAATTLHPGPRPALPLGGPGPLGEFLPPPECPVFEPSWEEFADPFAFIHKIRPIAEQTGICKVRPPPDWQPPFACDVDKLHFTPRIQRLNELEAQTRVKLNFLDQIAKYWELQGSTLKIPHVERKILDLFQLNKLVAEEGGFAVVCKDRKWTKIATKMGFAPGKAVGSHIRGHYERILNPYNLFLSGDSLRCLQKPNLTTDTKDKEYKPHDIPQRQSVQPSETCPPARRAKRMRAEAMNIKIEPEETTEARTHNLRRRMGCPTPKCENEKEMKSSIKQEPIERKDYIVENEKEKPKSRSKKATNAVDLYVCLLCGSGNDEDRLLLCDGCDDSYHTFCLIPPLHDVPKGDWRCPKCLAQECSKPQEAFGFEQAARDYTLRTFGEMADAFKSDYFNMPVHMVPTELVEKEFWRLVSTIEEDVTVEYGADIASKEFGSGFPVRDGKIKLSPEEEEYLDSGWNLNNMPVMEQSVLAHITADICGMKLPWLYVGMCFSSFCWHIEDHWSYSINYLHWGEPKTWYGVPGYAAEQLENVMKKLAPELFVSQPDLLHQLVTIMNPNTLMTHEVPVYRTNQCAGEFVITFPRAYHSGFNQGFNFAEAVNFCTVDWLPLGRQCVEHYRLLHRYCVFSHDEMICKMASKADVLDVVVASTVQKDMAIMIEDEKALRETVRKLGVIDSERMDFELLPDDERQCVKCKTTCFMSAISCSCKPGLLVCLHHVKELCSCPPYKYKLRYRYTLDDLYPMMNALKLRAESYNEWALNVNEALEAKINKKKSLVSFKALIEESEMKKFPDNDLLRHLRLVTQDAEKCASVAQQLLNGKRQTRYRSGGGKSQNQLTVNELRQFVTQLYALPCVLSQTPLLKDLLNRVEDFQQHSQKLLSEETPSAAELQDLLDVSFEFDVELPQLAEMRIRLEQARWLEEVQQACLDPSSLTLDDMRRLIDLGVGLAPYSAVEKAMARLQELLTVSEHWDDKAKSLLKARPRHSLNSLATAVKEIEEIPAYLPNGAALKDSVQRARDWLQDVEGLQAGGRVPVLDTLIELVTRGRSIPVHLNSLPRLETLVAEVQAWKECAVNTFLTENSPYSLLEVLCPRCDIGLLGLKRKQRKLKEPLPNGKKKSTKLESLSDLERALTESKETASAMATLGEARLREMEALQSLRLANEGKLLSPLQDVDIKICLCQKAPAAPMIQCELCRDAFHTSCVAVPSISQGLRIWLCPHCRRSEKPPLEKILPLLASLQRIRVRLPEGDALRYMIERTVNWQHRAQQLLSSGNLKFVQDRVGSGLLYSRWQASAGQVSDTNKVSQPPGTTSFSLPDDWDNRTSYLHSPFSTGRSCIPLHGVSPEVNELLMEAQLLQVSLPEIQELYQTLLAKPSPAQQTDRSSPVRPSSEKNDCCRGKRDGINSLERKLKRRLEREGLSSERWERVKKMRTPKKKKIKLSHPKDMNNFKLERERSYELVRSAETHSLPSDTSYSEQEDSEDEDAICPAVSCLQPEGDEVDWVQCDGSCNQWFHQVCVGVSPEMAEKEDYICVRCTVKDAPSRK

SMILES	Potency	activity change, negative = inhibition
CN(Cc1ccc(Br)cc1)CC(O)COc1cccc(Br)c1 (stereo not drawn)	inconclusive: 10 µM [inhibitor, partial curve, poor fit]	–
O=S(=O)(NCC(c1ccco1)S(=O)(=O)c1cccs1)c1ccc(F)c(C(F)(F)F)c1 (stereo not drawn)	inconclusive: 28.2 µM [inhibitor, partial curve, poor fit]	–
CCOc1ccccc1Oc1c(C)oc2cc(OCC(=O)O)ccc2c1=O	inconclusive: 39.8 µM [inhibitor, single point]	–
COc1ccccc1CNC[C@@H]1C=C(C)[C@H](Cc2nc3c(C)cccc3[nH]2)C[C@H]1C(C)C	–	inactive: -29.6% [at 86.2 µM]
COc1cccc(OC)c1C(=O)Nc1ccc2oc(-c3ccc(F)cc3)nc2c1	inconclusive: 12.6 µM [inhibitor, partial curve, poor fit]	–
CCCCn1c2ccc(F)cc2c2nnc(SCCN3CCCCC3)nc21	inconclusive: 39.8 µM [inhibitor, single point]	–
Cc1ccsc1C(=O)Nc1ccccc1Cc1ccccc1	–	inactive: 22.1%
COc1ccc(-c2noc([C@@H]3C[C@@H](O)CN3Cc3ccc(CO)o3)n2)cc1	inconclusive: 28.2 µM [inhibitor, partial curve]	–
COc1cccc(OC)c1C(=O)OCC(=O)c1ccc(Cl)cc1Cl	–	inactive: 22.8%
CNC(=O)CCS(=O)(=O)Cc1coc(-c2cccc(F)c2)n1	–	inactive: 2.96%
Cc1ccccc1-c1[nH]nc2ncc(-c3ccccc3F)nc12	active: 35.5 µM	–
O=C(O)C[C@@H]1CCN(C(=O)Nc2cccc(C(F)(F)F)c2)C[C@@H]1CC1=NCCc2cc(F)ccc21	inconclusive: 20 µM [inhibitor, single point]	–
Cc1cn2nc(C(=O)NCc3ccc(Br)cc3)cc2c(N2CCCC2)n1	active: 28.2 µM	–
CCOc1ccccc1CNC(=O)c1cc2c(=O)n(Cc3ccccc3)ccc2nc1C	inconclusive: 28.2 µM [inhibitor, partial curve, poor fit]	–
Cc1cc(=O)oc2cc(OCC(=O)NC(C)(C#N)C(C)C)ccc12 (stereo not drawn)	inconclusive: 28.2 µM [inhibitor, partial curve, poor fit]	–
CN1[C@@H](CCC(=O)Nc2ccccc2)CNC(=O)[C@@H]2[C@H]1CCN2Cc1cccc(OC(F)(F)F)c1	inconclusive: 28.2 µM [inhibitor, partial curve, poor fit]	–
CC(C)c1ccc2oc(-c3cc(NC(=O)c4cccs4)ccc3Cl)nc2c1	inconclusive: 35.5 µM [inhibitor, partial curve, poor fit]	–
CC(=O)c1ccc(C(C)(C)C)cc1	–	inactive: 5.3%
c1ccc(Cc2nnc(SCc3nc(-c4cccs4)no3)n2-c2ccccc2)cc1	–	inconclusive: -30.4% [inhibitor]
O=C(CCc1c[nH]c2ccccc12)NCc1ccc(F)cc1	–	inactive: 7.61%
Cc1cccc(N2NC3(CCCC(C)C3)NC2=S)c1C (stereo not drawn)	–	inactive: 0.763%
Cc1ccccc1N1CCN(S(=O)(=O)c2nnc(NC(=O)c3ccccc3)s2)CC1	inconclusive: 14.1 µM [inhibitor, partial curve, poor fit]	–
COc1ccc(N2CC3CCC(C2)N3Cc2cccs2)cc1	inconclusive: 31.6 µM [inhibitor, full curve, poor fit]	–

SMILES	Potency	activity change, negative = inhibition
O=C(O)/C=C/C(=O)Nc1cc(F)ccc1F	inconclusive: 31.6 µM [inhibitor, partial curve, poor fit]	–
COc1ccc(S(=O)(=O)c2c(Nc3ccc(F)cc3)sc(C(=O)c3ccc(C)cc3C)c2N)cc1	inconclusive: 28.2 µM [inhibitor, partial curve, poor fit]	–
Cc1noc(C)c1-c1cc2c(c(-c3cccnc3)c1)C(=O)N(C)C2	–	inactive: -9.76% [at 86.2 µM]
CC(=O)Nc1ccc(Cl)c(-c2nc3cc(C)ccc3o2)c1	inconclusive: 31.6 µM [inhibitor, single point]	–
COc1nccnc1NC1CCN(C(=O)COc2ccccc2C)CC1	active: 31.6 µM	–
CCCn1c(=O)c(C(=O)NNC(=O)Cc2ccccc2)c(O)c2ccccc21	inconclusive: 14.1 µM [inhibitor, partial curve, poor fit]	–
CCC(=O)Nc1cc(C)ccc1NC(=O)c1cccs1	–	inactive: -5.96%
O=C(Cn1c(=O)c2c(ncn2Cc2ccccc2)n(Cc2ccccc2)c1=O)NCCc1ccccc1	–	inactive: 8.02%
Cc1ccc(-n2c(SCC(=O)Nc3ccc4c(c3)OCCO4)nnc2N2CCOCC2)cc1	–	inactive: 8.75%
O=C(NCC1Cn2cccc2CN1Cc1ccccc1)c1ccncc1 (stereo not drawn)	active: 28.2 µM	–
CCOC(=O)C1CCN(CCC(=O)Nc2c(C(=O)OC)[nH]c3ccc(F)cc23)CC1	inconclusive: 25.1 µM [inhibitor, partial curve, poor fit]	–
Cc1nn(-c2ccc(C(C)C)cc2)c(C)c1[C@@H]1C=C[C@@H](NCc2ccc(F)cc2)C1	inconclusive: 31.6 µM [inhibitor, single point]	–
COCc1noc([C@@H]2CC(F)(F)CN2C(=O)c2cccc(C#N)c2)n1	–	inactive: -11.5%
Cc1ccc([C@H]2Nc3ccc(S(=O)(=O)Nc4cccc(Cl)c4C)cc3[C@H]3C=CC[C@H]32)cc1	inconclusive: 25.1 µM [inhibitor, single point]	–
CSc1cccc(NC(=S)NCCSc2ccc(Cl)cc2)c1	inconclusive: 39.8 µM [inhibitor, single point]	–
CCCOC(=O)c1cc(NC(=O)c2cccc(C)c2OC)ccc1N1CCOCC1	inconclusive: 39.8 µM [inhibitor, single point]	–
COC(=O)c1cc(-c2ccc(OC)c(OC)c2)nc2ccc(C)cc12	–	inactive: -13%
O=C(NCCC(c1ccccc1)c1ccccc1)c1n[nH]c(=O)c2ccccc12	–	inactive: -5.64%
Cc1cccc2[nH]c(C(=O)OCC(=O)Nc3ccccc3)cc12	–	inactive: -5.89%
CCCn1c(=O)n(-c2cc(Cl)c(OC)cc2OC)c(=O)c2c3c(sc21)CN(C(C)=O)CC3	inconclusive: 15.8 µM [inhibitor, partial curve, poor fit]	–
O=C(Nc1nccs1)c1ccc2c(c1)OCCN(CCC(F)(F)F)C2	–	inactive: -20.2% [at 86.2 µM]
Cc1oc(-c2nc(C#N)c(N3CCOCC3)o2)cc1S(=O)(=O)N1CCCC1	–	inactive: 85%
O=C(Cc1c[nH]c2ncc(-c3ccc(Oc4ccccc4)cc3)cc12)NCc1cccnc1	inconclusive: 35.5 µM [inhibitor, partial curve, poor fit]	–

SMILES	Potency	activity change, negative = inhibition
CCN1CCC(N2CCC3(CC2)NCCc2c3[nH]c3ccc(OC)cc23)CC1	inconclusive: 25.1 µM [inhibitor, partial curve]	–
COCCN1CCCCCC(O)c2cc(C(=O)NCC3CCCCC3)ccc21 (stereo not drawn)	inconclusive: 17.8 µM [inhibitor, single point]	–
COc1cccc(-c2nc(S(=O)(=O)c3ccc4c(c3)OCCO4)c(N3CCOCC3)o2)c1	inconclusive: 28.2 µM [inhibitor, single point]	–
CC(C)c1ccc(CN2CCc3ncc(C(=O)Nc4ccccc4)n3CC2)cc1	inconclusive: 39.8 µM [inhibitor, single point]	–
CCN(CC)c1cc(CCC(=O)N2CCC(C)CC2)ccn1	active: 25.1 µM	–
Cc1ccc(NC(=O)Cc2nc(CSc3nncn3-c3ccc(C)cc3C)cs2)cc1	–	inactive: 3.94%
COCCN1CC2(CCCN(Cc3ccc4ccn(C)c4c3)C2)CCC1=O (stereo not drawn)	inconclusive: 31.6 µM [inhibitor, partial curve, poor fit]	–
O=C(CCCn1c(=O)c2cccn2c2ccc(F)cc21)NCCc1ccccc1	inconclusive: 1.78 µM [inhibitor, partial curve, poor fit]	–
Cc1cccc(C(=O)NCC(c2ccc3c(c2)OCO3)N2CCN(c3ccccc3F)CC2)c1 (stereo not drawn)	inconclusive: 15.8 µM [inhibitor, partial curve, poor fit]	–
COc1ccc(NC(=O)c2sc3nc4c(cc3c2N)CN(C(C)C)CC4)c(OC)c1	inconclusive: 25.1 µM [inhibitor, partial curve, poor fit]	–
COc1ccccc1CN(C)C1CCOc2ccccc21 (stereo not drawn)	–	inactive: -8.8% [at 86.2 µM]
Cc1cc(-n2c(C)c3c(C)nnc(C)c3c2C)ccc1N	inconclusive: 25.1 µM [inhibitor, single point]	–
CC(=O)Nc1cccc(NC(=O)COC(=O)c2ccccc2OCc2cccc(Br)c2)c1	–	inactive: 5.86%
COc1ccc(S(=O)(=O)c2c(Nc3ccc(C)cc3)sc(C(=O)c3ccc(C)cc3)c2N)cc1	inconclusive: 7.08 µM [inhibitor, partial curve, poor fit]	–
COc1cc(CNC(=O)c2nc(C(O)c3ccccn3)oc2C)cc(OC)c1 (stereo not drawn)	inconclusive: 35.5 µM [inhibitor, partial curve, poor fit]	–
Cc1cc(=O)n2[nH]c(NCc3ccc(F)cc3)nc2n1	inconclusive: 15.8 µM [inhibitor, partial curve, poor fit]	–
COC(=O)c1cnn(-c2ccc(C(=O)Nc3ccc(F)c(F)c3)cc2)c1N	–	inactive: -11.5%
Cc1ccc(OC2(C(=O)NCc3cccc(N(C)C)c3)CCNCC2)cc1	inconclusive: 31.6 µM [inhibitor, partial curve, poor fit]	–
NC(=O)COc1cccc(C(=O)N2C[C@H](CO)C[C@H](CN3CCCC3)C2)c1	–	inactive: 10.4%
CCCn1nc(C(=O)NCc2nnc3n2CCCCC3)c2ccccc2c1=O	–	inactive: 27.4%
COCCNC(=O)c1ccc2c(c1)N(C)C(CC(=O)N1CCCOCC1)CO2 (stereo not drawn)	active: 31.6 µM	–
CC1CCN(S(=O)(=O)c2ccc(NC(=O)c3ccccc3F)cc2)CC1	inconclusive: 39.8 µM [inhibitor, single point]	–
